Data published in PubChem BioAssay (Tox21).
Values joined by “and” are separate entries in the source; they are usually repeats but may differ in a detail not shown here. Equal values may be shown once. Where a structure was tested more than once in an assay, its records may differ in their call. Active and inactive are the calls of the source. Unless noted, calls come from the whole dose curve; as a rule, active = well fitted curve in the direction sought with a large enough effect in the repeat runs; inconclusive = weak or mixed curves; inactive = no such curve, though single readings can be large; an effect the other way counts as inactive or inconclusive.

Legend:
[1] = qHTS assay for identifying genotoxic compounds that show differential cytotoxicity against isogenic chicken DT40 cell lines with known DNA damage response pathways - Rev3 mutant cell line (AID 743014); conditions: chicken DT40 Rev3-/- viability, CellTiter-Glo, 40 h; activity, negative = cytotoxicity: at 68.4 µM (top of the series) unless noted; note: potency is the fitted concentration of half-maximal effect; nearly all actives have a fitted effect of over 55% in size
[2] = qHTS assay for identifying genotoxic compounds that show differential cytotoxicity against isogenic chicken DT40 cell lines with known DNA damage response pathways - Rad54/Ku70 mutant cell line (AID 743015); conditions: DT40 Rad54/Ku70 mutant viability, CellTiter-Glo, 40 h; activity change, negative = cytotoxicity: at 66.8 µM (top of the series); note: nearly all actives have a fitted effect of over 60% in size; note: potency is the fitted concentration of half-maximal effect; for activity change, negative = cytotoxicity: % is set by controls: 0 for no effect and ±100 for the full control effect
[3] = molecular target: Androgen receptor (Homo sapiens) (UniProt P10275); experiment: qHTS assay to identify small molecule antagonists of the androgen receptor (AR) signaling pathway (AID 743035; active = well fitted inhibition curve with a large enough effect in the signal ratio in the repeat runs, not every such curve was filed as active; inconclusive = weak or mixed curves, or effect the other way; inactive = no such curve, though single readings can be large or run the other way; the % refers to the signal ratio; note: % is set by controls: 0 for no effect and ±100 for the full control effect); conditions: HEK293 AR-UAS-bla, R1881-stimulated, beta-lactamase FRET, 16 h; activity change, negative = inhibition: at 58.5 µM (top of the series) unless noted
How it was run: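 Fluorescence from a beta-lactamase FRET substrate (LiveBLAzer B/G, 2 h, room temperature) measured inhibition of R1881-stimulated signaling in GeneBLAzer AR-UAS-bla HEK293 cells exposed to compound for 16 h at 37C.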

[4] = molecular target: Androgen receptor (Homo sapiens) (UniProt P10275); experiment: qHTS assay to identify small molecule agonists of the androgen receptor (AR) signaling pathway (AID 743036; active = well fitted activation curve with a large enough effect in the signal ratio in the repeat runs, with a control signal flat, not every such curve was filed as active; inconclusive = weak or mixed curves, or effect the other way; inactive = no such curve, though single readings can be large or run the other way; the % refers to the signal ratio; note: potency is the fitted concentration of half-maximal effect); conditions: HEK293 AR-UAS-bla GripTite, beta-lactamase FRET ratio, 16 h; activation: at 62.4 µM (top of the series) unless noted
How it was run: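 Agonist activity was scored by beta-lactamase reporter fluorescence in stably transfected HEK293 cells exposed to compounds for 16 h at 37C and 5% CO2. Substrate loading took 2 h at room temperature.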

[5] = qHTS assay to identify small molecule antagonists of the thyroid receptor (TR) signaling pathway - cell viability counter screen (AID 743064); conditions: GH3.TRE-Luc viability, CellTiter-Fluor, 24 h; activity change, negative = cytotoxic: at 70.3 µM (top of the series) unless noted; note: potency is the fitted concentration of half-maximal effect; nearly all actives have a fitted effect of over 50% in size
How it was run: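 Same-well viability check: GH3.TRE-Luc cells stimulated with 1 nM T3 alongside test compound for 23.5 h, followed by CellTiter-Fluor fluorescence.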

[6] = system: thyroid hormone receptor (rat, GH3 cells); experiment: qHTS assay to identify small molecule agonists of the thyroid receptor (TR) signaling pathway (AID 743066; calls by dose curve; note: % is set by controls: 0 for no effect and ±100 for the full control effect); conditions: GH3.TRE-Luc cells, TR agonist luciferase, 24 h; activation: at 83.9 µM (top of the series) unless noted
[7] = molecular target: Estrogen receptor (Homo sapiens) (UniProt P03372); experiment: qHTS assay to identify small molecule antagonists of the estrogen receptor alpha (ER-alpha) signaling pathway (AID 743069; active = well fitted curve in the direction sought with a large enough effect in the signal ratio in the repeat runs, not every such curve was filed as active; inconclusive = weak or mixed curves, or effect the other way; inactive = no such curve, though single readings can be large or run the other way; the % refers to the signal ratio; note: potency is the fitted concentration of half-maximal effect; for activity, negative = inhibition: % is set by controls: 0 for no effect and ±100 for the full control effect); conditions: HEK293 ER-alpha-UAS-bla, beta-lactamase ratio, antagonist mode; activity, negative = inhibition: at 69.4 µM (top of the series) unless noted
How it was run: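 HEK293 cells stably carrying an ER-alpha-UAS-bla beta-lactamase reporter were pre-cultured overnight in 2% charcoal-stripped FBS medium. Test compounds in DMSO were added together with 17beta-estradiol for 18 hr at 37C. Read-out was fluorescence after 2 hr with LiveBLAzer B/G FRET substrate at room temperature.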

[8] = qHTS assay to identify small molecule antagonists of the androgen receptor (AR) signaling pathway - cell viability counter screen (AID 743033; note: % is set by controls: 0 for no effect and ±100 for the full control effect; nearly all actives have a fitted effect of over 45% in size); conditions: AR-bla HEK293 viability, CellTiter-Glo luminescence, 16 h; activity change, negative = cytotoxicity: at 58.5 µM (top of the series)
[9] = qHTS assay to identify small molecule antagonists of the estrogen receptor alpha (ER-alpha) signaling pathway - cell viability counter screen (AID 743074; calls by dose curve; note: potency is the fitted concentration of half-maximal effect; nearly all actives have a fitted effect of over 45% in size)
[10] = molecular target: Estrogen receptor (Homo sapiens) (UniProt P03372); experiment: qHTS assay to identify small molecule agonists of the estrogen receptor alpha (ER-alpha) signaling pathway using the BG1 cell line (AID 743079); conditions: BG1Luc4E2 cells, ERE-luciferase agonist, 22 h; activation: at 70.3 µM (top of the series) unless noted; note: potency is the fitted concentration of half-maximal effect; nearly all actives have a fitted effect of over 20% in size
Tags give direction and shape of the fitted curve or compound fluorescence and quenching.

Chain of UniProt P03372 (P03372 whole entry, looked up): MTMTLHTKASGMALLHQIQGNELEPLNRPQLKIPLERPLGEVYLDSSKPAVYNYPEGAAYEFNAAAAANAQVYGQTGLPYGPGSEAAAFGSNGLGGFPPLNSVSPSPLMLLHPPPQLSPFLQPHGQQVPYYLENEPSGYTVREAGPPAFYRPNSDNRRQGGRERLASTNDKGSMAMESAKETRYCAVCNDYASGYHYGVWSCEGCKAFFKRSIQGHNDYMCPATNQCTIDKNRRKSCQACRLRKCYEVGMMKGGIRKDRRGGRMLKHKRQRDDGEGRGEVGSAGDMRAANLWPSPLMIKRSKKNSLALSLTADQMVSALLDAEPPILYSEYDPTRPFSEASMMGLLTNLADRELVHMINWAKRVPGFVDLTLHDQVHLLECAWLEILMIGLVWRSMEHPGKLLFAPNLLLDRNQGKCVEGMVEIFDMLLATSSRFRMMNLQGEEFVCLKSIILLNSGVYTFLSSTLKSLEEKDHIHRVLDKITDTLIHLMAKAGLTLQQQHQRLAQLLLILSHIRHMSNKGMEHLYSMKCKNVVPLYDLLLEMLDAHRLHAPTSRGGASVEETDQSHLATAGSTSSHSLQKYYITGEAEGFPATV
Chain of UniProt P10275 (P10275 whole entry, looked up): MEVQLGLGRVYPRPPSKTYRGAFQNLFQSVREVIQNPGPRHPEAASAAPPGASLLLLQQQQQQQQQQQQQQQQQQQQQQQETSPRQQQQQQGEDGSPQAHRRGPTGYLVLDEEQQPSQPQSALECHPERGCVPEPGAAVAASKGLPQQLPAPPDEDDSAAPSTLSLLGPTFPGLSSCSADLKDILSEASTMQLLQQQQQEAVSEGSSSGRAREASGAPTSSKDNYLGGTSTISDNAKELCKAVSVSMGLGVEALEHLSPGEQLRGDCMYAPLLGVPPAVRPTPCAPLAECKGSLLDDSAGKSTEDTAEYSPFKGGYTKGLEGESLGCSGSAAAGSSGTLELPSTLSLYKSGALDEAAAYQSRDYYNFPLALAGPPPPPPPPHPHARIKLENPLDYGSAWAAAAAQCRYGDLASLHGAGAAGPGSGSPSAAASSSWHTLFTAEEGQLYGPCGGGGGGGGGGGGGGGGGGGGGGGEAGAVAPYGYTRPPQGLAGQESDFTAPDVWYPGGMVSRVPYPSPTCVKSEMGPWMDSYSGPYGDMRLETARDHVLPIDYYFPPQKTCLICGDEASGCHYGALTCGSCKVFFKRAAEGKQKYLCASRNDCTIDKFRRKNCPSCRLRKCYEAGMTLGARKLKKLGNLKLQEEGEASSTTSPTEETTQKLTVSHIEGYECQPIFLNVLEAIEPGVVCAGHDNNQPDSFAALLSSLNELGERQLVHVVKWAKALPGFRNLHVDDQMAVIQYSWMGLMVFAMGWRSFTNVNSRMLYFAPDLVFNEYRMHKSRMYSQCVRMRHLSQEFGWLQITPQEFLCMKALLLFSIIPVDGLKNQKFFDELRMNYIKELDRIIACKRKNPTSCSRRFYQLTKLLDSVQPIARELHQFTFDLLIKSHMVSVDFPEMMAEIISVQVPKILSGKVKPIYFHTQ

## CC(C)=CCOc1ccc(/C=C/C(=O)c2ccc(OCC=C(C)C)cc2OCC(=O)O)cc1
[1]
  Potency: inconclusive: 33.5 µM [cytotoxic, single point]
[2]
  Potency: inconclusive: 29.8 µM [cytotoxic]
[3]
  activity change, negative = inhibition: inconclusive: 6.84%
[4]
  Potency: inconclusive: 6.74 µM
[5]
  Potency: inconclusive: 33.5 µM [cytotoxic, single point]
[6]
  activation: inconclusive: -9.32% [phenotype inactive]
[7]
  Potency: active: 16.9 µM [inconclusive]

## CC1=CC[C@@H]2C[C@H]1C2(C)C
[1]
  Potency: inconclusive: 12.2 µM [cytotoxic]
[2]
  Potency: inconclusive: 13.6 µM [cytotoxic, partial curve, poor fit]
[5]
  Potency: inconclusive: 1.22 µM [rising, single point]

## Nc1ccc(Cl)c(N)c1
[1]
  Potency: inconclusive: 30.7 µM [cytotoxic, partial curve, poor fit]
[2]
  Potency: inconclusive: 61.3 µM [cytotoxic, single point] and inconclusive: 77 µM [cytotoxic, partial curve, poor fit]
[8]
  Potency: inactive
[9]
  Potency: inconclusive: 2.45 µM [rising, full curve, poor fit]
[10]
  Potency: inconclusive: 0.0218 µM [activator, full curve, poor fit]

## C[C@@H]1NC(=O)[C@@H](N)CNC(=O)[C@H](C2CCNC(N)=N2)NC(=O)/C(=C/NC(N)=O)NC(=O)[C@H](CNC(=O)C[C@@H](N)CCCN)NC1=O (stereo not given in full)
[1]
  Potency: inconclusive: 18.8 µM [rising, partial curve, poor fit]
[2]
  Potency: inactive
[8]
  Potency: inactive
[7]
  activity, negative = inhibition: inconclusive: -24.3% [at 32.6 µM]
[10]
  Potency: active: 29.8 µM
